The source of these data is paper PMC5823669, “Multi-chaperone function modulation and association with cytoskeletal proteins are key features of the function of AIP in the pituitary gland” (Oncotarget, 2018).

Protein sequences, listed by entry. Tags and fused reporters are not part of them. Residues count along the entry.
UniProt P00441: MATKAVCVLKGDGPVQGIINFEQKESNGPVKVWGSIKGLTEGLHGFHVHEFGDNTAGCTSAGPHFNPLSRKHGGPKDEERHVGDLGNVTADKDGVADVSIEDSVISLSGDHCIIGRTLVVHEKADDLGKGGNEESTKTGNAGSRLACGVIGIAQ
UniProt P11142: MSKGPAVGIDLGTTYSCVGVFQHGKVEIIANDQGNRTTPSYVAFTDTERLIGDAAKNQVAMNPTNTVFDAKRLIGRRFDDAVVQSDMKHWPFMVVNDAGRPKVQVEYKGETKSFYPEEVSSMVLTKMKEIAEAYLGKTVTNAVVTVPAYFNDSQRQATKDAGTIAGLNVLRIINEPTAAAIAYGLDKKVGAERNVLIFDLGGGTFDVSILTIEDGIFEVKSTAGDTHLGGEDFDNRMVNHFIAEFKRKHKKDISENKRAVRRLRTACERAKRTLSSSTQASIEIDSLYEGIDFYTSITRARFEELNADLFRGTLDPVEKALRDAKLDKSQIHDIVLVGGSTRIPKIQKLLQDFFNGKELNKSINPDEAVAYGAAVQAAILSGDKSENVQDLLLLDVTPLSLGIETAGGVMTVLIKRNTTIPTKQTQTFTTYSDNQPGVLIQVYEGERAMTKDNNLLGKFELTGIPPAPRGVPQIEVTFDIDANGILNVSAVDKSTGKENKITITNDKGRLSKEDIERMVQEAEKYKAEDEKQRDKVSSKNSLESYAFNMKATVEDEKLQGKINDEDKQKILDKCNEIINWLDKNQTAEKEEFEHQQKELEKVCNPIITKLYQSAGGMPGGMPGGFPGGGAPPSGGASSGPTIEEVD
UniProt Q13885: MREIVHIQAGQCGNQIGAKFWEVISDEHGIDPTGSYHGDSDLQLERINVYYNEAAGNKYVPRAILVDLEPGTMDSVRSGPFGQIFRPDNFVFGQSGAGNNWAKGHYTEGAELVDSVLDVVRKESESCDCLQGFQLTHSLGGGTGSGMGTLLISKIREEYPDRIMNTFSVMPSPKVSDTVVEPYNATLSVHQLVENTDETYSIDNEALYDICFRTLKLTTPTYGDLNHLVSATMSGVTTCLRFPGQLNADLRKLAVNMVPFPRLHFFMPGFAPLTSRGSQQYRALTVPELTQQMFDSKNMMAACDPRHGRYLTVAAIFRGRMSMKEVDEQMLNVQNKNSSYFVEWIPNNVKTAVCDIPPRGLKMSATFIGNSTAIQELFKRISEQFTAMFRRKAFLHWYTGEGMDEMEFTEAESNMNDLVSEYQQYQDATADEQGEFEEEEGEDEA
UniProt P08238: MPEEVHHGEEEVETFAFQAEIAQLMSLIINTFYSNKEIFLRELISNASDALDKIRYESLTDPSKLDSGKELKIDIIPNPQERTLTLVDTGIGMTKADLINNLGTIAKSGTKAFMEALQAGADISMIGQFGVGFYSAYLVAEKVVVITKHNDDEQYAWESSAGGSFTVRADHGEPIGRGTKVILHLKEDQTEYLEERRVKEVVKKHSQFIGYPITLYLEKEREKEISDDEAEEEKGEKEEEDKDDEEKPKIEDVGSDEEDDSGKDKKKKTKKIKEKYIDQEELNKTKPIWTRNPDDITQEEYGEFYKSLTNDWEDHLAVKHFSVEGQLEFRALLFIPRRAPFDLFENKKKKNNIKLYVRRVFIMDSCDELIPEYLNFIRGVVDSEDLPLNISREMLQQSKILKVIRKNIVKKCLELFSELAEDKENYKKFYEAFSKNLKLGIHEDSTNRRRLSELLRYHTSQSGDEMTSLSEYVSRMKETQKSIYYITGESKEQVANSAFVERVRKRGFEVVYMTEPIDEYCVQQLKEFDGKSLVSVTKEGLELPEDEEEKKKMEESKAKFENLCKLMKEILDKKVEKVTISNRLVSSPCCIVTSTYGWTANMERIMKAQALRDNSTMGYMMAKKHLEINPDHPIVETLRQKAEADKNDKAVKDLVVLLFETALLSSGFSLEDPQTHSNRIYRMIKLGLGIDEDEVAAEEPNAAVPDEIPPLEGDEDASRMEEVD
UniProt P15531: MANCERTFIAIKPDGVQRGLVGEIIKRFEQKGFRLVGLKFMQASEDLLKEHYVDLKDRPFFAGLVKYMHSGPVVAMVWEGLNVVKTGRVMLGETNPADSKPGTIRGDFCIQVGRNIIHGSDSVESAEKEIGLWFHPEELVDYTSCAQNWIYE
UniProt P11021, residues 19-654: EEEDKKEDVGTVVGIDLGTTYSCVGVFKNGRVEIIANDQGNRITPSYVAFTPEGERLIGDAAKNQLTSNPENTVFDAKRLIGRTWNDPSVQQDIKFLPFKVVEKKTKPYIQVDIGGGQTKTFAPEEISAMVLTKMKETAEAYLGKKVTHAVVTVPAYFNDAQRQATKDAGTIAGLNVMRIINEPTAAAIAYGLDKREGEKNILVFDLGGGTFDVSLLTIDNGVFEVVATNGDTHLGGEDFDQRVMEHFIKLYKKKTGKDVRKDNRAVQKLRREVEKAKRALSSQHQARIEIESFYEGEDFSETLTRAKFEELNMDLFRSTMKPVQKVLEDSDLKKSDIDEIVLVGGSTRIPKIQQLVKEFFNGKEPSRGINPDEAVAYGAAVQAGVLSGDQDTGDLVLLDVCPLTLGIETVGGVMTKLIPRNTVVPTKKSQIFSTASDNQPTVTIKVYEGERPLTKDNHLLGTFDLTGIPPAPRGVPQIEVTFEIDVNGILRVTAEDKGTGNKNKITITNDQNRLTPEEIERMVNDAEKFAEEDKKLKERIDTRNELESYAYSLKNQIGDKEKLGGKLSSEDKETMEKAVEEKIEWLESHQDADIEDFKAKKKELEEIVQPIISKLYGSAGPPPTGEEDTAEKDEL
UniProt P38646, residues 47-679: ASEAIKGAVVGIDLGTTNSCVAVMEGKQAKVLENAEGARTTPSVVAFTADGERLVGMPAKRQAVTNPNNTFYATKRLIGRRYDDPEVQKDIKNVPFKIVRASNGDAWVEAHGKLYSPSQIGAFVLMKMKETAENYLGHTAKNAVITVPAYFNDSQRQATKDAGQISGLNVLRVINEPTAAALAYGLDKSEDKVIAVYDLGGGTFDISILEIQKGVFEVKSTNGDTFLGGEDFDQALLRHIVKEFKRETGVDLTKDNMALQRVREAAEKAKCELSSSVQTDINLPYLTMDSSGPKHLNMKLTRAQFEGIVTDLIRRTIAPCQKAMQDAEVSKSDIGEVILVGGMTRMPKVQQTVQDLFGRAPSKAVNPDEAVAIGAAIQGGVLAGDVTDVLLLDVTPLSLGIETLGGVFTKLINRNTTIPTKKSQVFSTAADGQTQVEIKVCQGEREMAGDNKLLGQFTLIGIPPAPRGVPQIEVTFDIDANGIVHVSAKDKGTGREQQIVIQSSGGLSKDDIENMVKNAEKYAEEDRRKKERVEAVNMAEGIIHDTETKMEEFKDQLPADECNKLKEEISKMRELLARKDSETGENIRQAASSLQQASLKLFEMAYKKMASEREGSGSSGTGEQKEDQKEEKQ
UniProt P07437: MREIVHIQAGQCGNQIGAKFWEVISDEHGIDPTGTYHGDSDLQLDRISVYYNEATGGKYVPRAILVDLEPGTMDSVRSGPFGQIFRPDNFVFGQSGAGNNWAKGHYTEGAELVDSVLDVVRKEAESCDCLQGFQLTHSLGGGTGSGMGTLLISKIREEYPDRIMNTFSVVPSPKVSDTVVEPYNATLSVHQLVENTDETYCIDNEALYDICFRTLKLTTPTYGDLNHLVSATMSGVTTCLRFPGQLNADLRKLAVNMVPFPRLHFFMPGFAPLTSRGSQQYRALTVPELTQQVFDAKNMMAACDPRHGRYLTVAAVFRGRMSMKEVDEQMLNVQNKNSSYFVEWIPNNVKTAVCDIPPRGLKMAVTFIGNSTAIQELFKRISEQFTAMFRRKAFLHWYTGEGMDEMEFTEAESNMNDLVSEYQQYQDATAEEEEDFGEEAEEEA

Results are given in words; binding and its absence hold for the method and conditions named. In cells and extracts the contact can be indirect. Some binding calls cover weakened binding; strength is not graded here. Where a sequence is shown, tags or fusion partners need not be part of it.

T1: N-terminally Myc-tagged WT AIP (human) (UniProt O00170)
T1 sequence: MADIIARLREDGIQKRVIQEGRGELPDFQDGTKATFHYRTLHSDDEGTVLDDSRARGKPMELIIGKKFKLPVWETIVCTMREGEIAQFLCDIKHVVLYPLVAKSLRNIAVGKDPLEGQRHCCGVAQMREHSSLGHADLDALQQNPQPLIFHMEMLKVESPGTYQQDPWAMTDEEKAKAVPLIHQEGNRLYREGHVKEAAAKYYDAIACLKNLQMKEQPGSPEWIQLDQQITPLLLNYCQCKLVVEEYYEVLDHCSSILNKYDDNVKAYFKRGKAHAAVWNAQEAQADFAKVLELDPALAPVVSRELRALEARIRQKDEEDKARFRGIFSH

B1: HA-tagged CBR1 (carbonyl reductase [NADPH] 1) (protein, UniProt P16152 1-277)
chain: MSSGIHVALVTGGNKGIGLAIVRDLCRLFSGDVVLTARDVTRGQAAVQQLQAEGLSPRFHQLDIDDLQSIRALRDFLRKEYGGLDVLVNNAGIAFKVADPTPFHIQAEVTMKTNFFGTRDVCTELLPLIKPQGRVVNVSSIMSVRALKSCSPELQQKFRSETITEEELVGLMNKFVEDTKKGVHQKEGWPSSAYGVTKIGVTVLSRIHARKLSEQRKGDKILLNACCPGWVRTDMAGPKATKSPEEGAETPVYLALLPPDAEGPHGQFVSEKRVEQW
B2: HA-tagged NEFL (neurofilament light polypeptide) (protein, UniProt P07196 1-543)
chain: MSSFSYEPYYSTSYKRRYVETPRVHISSVRSGYSTARSAYSSYSAPVSSSLSVRRSYSSSSGSLMPSLENLDLSQVAAISNDLKSIRTQEKAQLQDLNDRFASFIERVHELEQQNKVLEAELLVLRQKHSEPSRFRALYEQEIRDLRLAAEDATNEKQALQGEREGLEETLRNLQARYEEEVLSREDAEGRLMEARKGADEAALARAELEKRIDSLMDEISFLKKVHEEEIAELQAQIQYAQISVEMDVTKPDLSAALKDIRAQYEKLAAKNMQNAEEWFKSRFTVLTESAAKNTDAVRAAKDEVSESRRLLKAKTLEIEACRGMNEALEKQLQELEDKQNADISAMQDTINKLENELRTTKSEMARYLKEYQDLLNVKMALDIEIAAYRKLLEGEETRLSFTSVGSITSGYSQSSQVFGRSAYGGLQTSSYLMSTRSFPSYYTSHVQEEQIEVEETIEAAKAEEAKDEPPSEGEAEEEEKDKEEAEEEEAAEEEEAAKEESEEAKEEEEGGEGEEGEETKEAEEEEKKVEGAGEEQAAKKKD

One assay deals with T1, N-terminally Myc-tagged WT AIP (human). Description: co-IP; Myc-AIP and one HA-tagged partner co-transfected in HEK293; lysis in 150 mM NaCl, 10 mM Tris-Cl pH 7.5, 10% glycerol, 1% IGEPAL CA-630; IP with anti-Myc, anti-HA (anti-ACTB for ACTB) or mouse IgG control; Western blot with anti-Myc and anti-HA.
With “HA-tagged SOD1 (superoxide dismutase [Cu-Zn]) (from UniProt P00441 1-154)”, the binding result is “binds weakly”.

Consider “N-terminally HA-tagged HSPA8 (heat shock cognate 71 kDa protein) (from UniProt P11142 1-646)”, for which the binding result is on record as “binds”.

Regarding “HA-tagged TUBB2A (tubulin beta-2A chain) (from UniProt Q13885 1-445)”, the binding result is listed as “binds”.

On to “N-terminally HA-tagged HSP90AB1 (heat shock protein 90-beta) (from UniProt P08238 1-724)”, for which the binding entry is listed as “binds”.

As for “HA-tagged NME1 (nucleoside diphosphate kinase A) (from UniProt P15531 1-152)”, the binding result is reported as “binds”.

Consider “N-terminally HA-tagged HSPA5 (78 kDa glucose-regulated protein) (from UniProt P11021 19-654)”, for which the binding entry was “binds”.

For the molecule “N-terminally HA-tagged HSPA9 (stress-70 protein, mitochondrial) (from UniProt P38646 47-679)”, the binding entry is recorded as “binds”.

As to “N-terminally HA-tagged HSP90AA1 (heat shock protein 90-alpha) (from UniProt P07900 1-732)”, the binding entry was “binds”.

As to “HA-tagged TUBB (tubulin beta chain) (from UniProt P07437 1-444)”, the binding entry is given as “binds”.

For another assay the target is unchanged. The description is as above. The source holds these as a separate data set.
As for B1, the binding entry is on record as “no binding”.

For B2, the binding result was “no binding”.
